Test results: the supplement of paper PMC3334620
Whole data set: some 33,000 sequences, median “E-score (-0.5 to 0.5)” near -0.021, cut for the highest 2% near 0.32. The list shows a part of the results.

Target: T1, Zap1 (UniProt P47043)
T1 sequence: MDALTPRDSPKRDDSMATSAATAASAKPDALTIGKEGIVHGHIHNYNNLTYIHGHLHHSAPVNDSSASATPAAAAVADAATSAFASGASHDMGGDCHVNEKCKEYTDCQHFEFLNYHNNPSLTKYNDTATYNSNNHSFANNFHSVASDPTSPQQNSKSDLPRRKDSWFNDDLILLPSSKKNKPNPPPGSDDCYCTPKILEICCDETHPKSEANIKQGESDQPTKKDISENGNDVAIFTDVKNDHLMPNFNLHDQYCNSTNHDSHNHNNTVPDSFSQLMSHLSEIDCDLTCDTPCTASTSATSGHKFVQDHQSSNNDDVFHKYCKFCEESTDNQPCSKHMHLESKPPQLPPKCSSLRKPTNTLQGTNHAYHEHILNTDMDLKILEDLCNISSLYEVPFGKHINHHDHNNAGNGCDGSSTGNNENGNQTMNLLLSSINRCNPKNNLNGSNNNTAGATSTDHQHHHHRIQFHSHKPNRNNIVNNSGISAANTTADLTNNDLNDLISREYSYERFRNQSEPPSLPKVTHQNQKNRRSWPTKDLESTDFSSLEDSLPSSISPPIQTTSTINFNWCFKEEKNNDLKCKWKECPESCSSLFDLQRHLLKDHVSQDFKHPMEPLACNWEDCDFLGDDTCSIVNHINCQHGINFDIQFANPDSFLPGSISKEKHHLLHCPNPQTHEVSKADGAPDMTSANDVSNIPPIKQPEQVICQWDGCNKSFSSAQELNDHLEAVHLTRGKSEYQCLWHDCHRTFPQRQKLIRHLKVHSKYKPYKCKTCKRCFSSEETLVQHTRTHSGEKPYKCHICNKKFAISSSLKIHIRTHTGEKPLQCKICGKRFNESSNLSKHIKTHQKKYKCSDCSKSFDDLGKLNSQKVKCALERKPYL
Assay: PBM E-score (8-mer binding enrichment) (E-score (-0.5 to 0.5)); higher = stronger / more preferred TF binding; most listed sequences are background and not binding sites
Conditions: protein concentration: 200 nM; construct: GST-full length
In short: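 GST-tagged yeast TFs (full-length or DNA-binding domain) were made by PURExpress in vitro transcription/translation and applied at about 100-200 nM to universal all-10-mer Agilent arrays. The arrays were made double-stranded by primer extension, on fresh or once-stripped slides. Bound protein was detected with fluorescent anti-GST, and scans were normalised with masliner. Each ungapped eight-base word, pooled with its reverse complement, received an E-score (modified Wilcoxon-Mann-Whitney statistic) from the Universal PBM Analysis Suite.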

Row | Sequence | PBM E-score
1 | ACCGACTG | -0.204
2 | CACCGGTC | -0.112
3 | AAATCCTT | -0.162
4 | AGGGTTGA | 0.271
5 | CAGTAGGA | -0.247
6 | TACCGGCA | -0.0706
7 | AGACCGGG | 0.0501
8 | CTCGAATC | -0.00443
9 | CCCGGGCA | -0.0642
10 | CATGTCCG | -0.0863
11 | CTACCTCA | 0.251
12 | AGCGCTAG | -0.225
13 | ACGCAAGG | 0.107
14 | CACACGCG | -0.0613
15 | CCTTCAGA | 0.118
16 | CCGGACGA | -0.123
17 | AATCTTCC | -0.26
18 | GAGATTCC | -0.0295
19 | AGAAGTCT | -0.257
20 | ATGTTAGG | -0.0226
21 | AGAACACC | 0.0413
22 | CACAAACA | 0.159

Row | Sequence | PBM E-score
23 | CTACATTA | -0.0456
24 | ATCTAATG | -0.0284
25 | CCATTAGA | -0.0362
26 | ACACAAGA | 0.119
27 | ATTACGAC | 0.0724
28 | GAGTCCCA | -0.119
29 | AAACTTAA | 0.174
30 | CCCGTTCC | -0.079
31 | AGTTAGGG | 0.102
32 | GAGTGCGA | -0.1
33 | CAACATAC | 0.111
34 | CCCAACGC | 0.0793
35 | ACTTCACA | -0.0829
36 | CTTAAGCC | -0.0415
37 | ACAAGAAT | -0.106
38 | CAGAGCAG | -0.13
39 | ACGGCCCG | -0.163
40 | AATTGTAC | 0.0773
41 | ATGCGTTG | -0.00451
42 | ACTCTCTC | -0.0978
43 | GACTTAAA | -0.0473
44 | AGTATACA | -0.0486

Row | Sequence | PBM E-score
45 | ACTGTTTG | 0.0466
46 | CTGGGAAC | 0.0666
47 | ACTTTGGA | 0.121
48 | GGTTTAAC | 0.306
49 | GCATCCAC | -0.0702
50 | CGCTGAGA | -0.182
51 | TGCGTACA | -0.141
52 | TACAACAA | 0.276
53 | ACTGTCCG | 0.0425
54 | GCCAGAAA | 0.0793
55 | CTGTGGTA | 0.0465
56 | AACCTTAC | 0.318
57 | ATTGATAG | 0.118
58 | ACACTTCT | -0.0698
59 | AGGGCGGC | -0.313
60 | CAGCAGTC | -0.0852
61 | CCATATAC | 0.0328
62 | ATATAACA | 0.176
63 | CTATGAAA | -0.0314
64 | GACACCTA | -0.0196
65 | GTTCATAA | 0.0881
66 | GTCTGTTA | -0.00667

Row | Sequence | PBM E-score
67 | AATCTACC | 0.0376
68 | ATCGAGAC | -0.0844
69 | ATCGTGCA | 0.0447
70 | AGCCATAT | -0.114
71 | CTGGACTA | 0.0556
72 | CAGGTTCA | -0.0984
73 | CCAAGGAG | -0.166
74 | GCGATCTA | -0.15
75 | CGTGTGAA | -0.103
76 | TCCATAAA | 0.061
77 | CGATCCTC | -0.25
78 | CCCTATAA | -0.176
79 | ACGTACTC | -0.181
80 | GTCTCCAC | -0.11
81 | CTCTGGTC | -0.0147
82 | AAGGCAGA | -0.215
83 | CAGCGATA | 0.0366
84 | GATCCAGA | 0.021
85 | AGATAATC | -0.0271
86 | CCACGCCG | -0.032
